This is an account of results in the RNAGym collection of RNA variant scans (doi:10.7554/elife.90254).

Sequences and labels used below:
B1: LINE1-full (parent)
chain: UACGUAGGUGGUUUUCCCCUGAUAGUGCUAAGGGGGCCUGGAAGUUUGGACUGGGCAGAGCUCAACACAGCGUGGCAAAGUGGCUGUGGCUAGACUGCCUCUCUGGAUUCCUCGUCACUCAGCAGGGCAUCUCUGAGAGAAAUGCC

Read counts are not given, so values of variants with three or more changes are uncertain.

The data set covers variants of B1. Put plainly: self-cleavage, relative activity (ratio to wild type); higher = more cleavage; in vitro, sequencing; the parent is a self-cleaving ribozyme.
Regarding UACGUAGGUGGUUUUCCCCUGAUAGUGCUAAGGGGGCCUGGUAGUUUGGACUGGGCGGGGCUCAACACAGCGUGGCAAAGUGGCUGUGGCUAGACUGCCUCUCUGGAUUCCUCGUCACUCAGCAGGGCAUCUCUGAGAGAAAUGCC [A42U A57G A59G], the self-cleavage amounted to 0.16. The value for UACGUAGGUGGUUUUCCCCUGAUAGUGCUAAGGGGGCCUGGUAGCUUGGACUGGGCAGAGCUCAACACAGCGUGGCAAAGUGGCUGUGGCUAGACUGCCUCUCUGGAUUCCUCGUCACUCAGCAGGGCGUCUCUGAGAGAAAUGCC [A42U U45C A129G] was 0.64; that for UACGUAGGUGGUUUUCCCCUGAUAGUGCUAAGGGGGCCUGGUAGUCUGGACUGGGCAGAGCUCAACACAGCGUGGCAAAGUGGCUGUGGCUAGACUGUCUCUCUGGAUUCCUCGUCAUUCAGCAGGGCAUCUCUGAGAGAAAUGCC [A42U U46C C98U C118U] was 0.57; that for UACGUAGGUGGUUUUCCCCUGAUAGUGCUAAGGGGGCCUGGUAGUUUGGACUGGGCAGAGCUCAACACAGCGUGGCAAAGUGGCUGUGGCUAGCCUGCCUCUCUGGAUUCCUCGUCACUCAGCAGUGCAUCUCUGAGAGAAAUGCC [A42U A94C G126U] was 0.14. The value for UACGUAGGUGGUUUUCCCCUGAUAGUGCUAAGGGGGCCUGGUAGUUUGGACUGGGCAGAGCUCAACACAGCGUGGCAAAGUGGCUGUGGCUAGACUGCCUCUCUGGAUUCCUCGUCGCUCAGCAGGGCAUCUCUGAGAGAAAUGCU [A42U A117G C146U] was 1.78.

On to UACGUAGGUGGUUUUCCCCUGAUAGUGCUAAGGGGGCCUGGUAGUUUGGACCGGGCAGAGCUCAACACAGCGUGGCAAAGUGGCUGUGGCUAGACUGCCUCUCUGGAUUCCUCGUCACUCAGCAGGGCAUCUCUGAGAGAGAUGCC [A42U U52C A141G], for which the self-cleavage was 1.25. The same measure for UACGUAGGUGGUUUUCCCCUGAUAGUGCUAAGGGGGCCUGGUAGUUUGGACUGGGCAGAGCCCAACACAGCGUGGCCAAGUGGCUGUGGCUAGACUGCCUCUCUGGAUUCCUCGUCACGCAGCAGGGCAUCUCUGAGAGAAAUGCC [A42U U62C A77C U119G]: 0.14; for UACGUAGGUGGUUUUCCCCUGAUAGUGCUAAGGGGGCCUGGUAGUCUGGACUGGGCAGAGCCCAACACAGCGUGGCAAGGUGGCUGUGGCUAGACUGCCUCUCUGGAUUCCUCGUCUCUCAGCAGGGCAUCUCUGAGAGAAAUGCC [A42U U46C U62C A79G A117U]: 0.16; for UACGUAGGUGGUUUUCCCCUGAUAGUGCUAAGGGGGCCUGGUAGUUUGGACUGGGCAGAGCUCAGCACAGCGUGGCAAAGUGGCUGUGGCUAGACUGCCUCUCCGGAUUCCUCGUCACUCAGCAGGGCAUCUCUGAGAGAAAUGCC [A42U A65G U104C]: 0. The same measure for UACGUAGGUGGUUUUCCCCUGAUAGUGCUAAGGGGGCCUGGGAGUUUGGACUGGGCAGAGCUCAACACAGCGUGGCAAAGUGGCUGUGGCUAGACUGCCUCUCUGGAUUCCUCGUCACUCAGCAGGGCACCUCUGAGAGGAAUGCC [A42G U130C A140G]: 0.8; for UACGUAGGUGGUUUUCCCCUGAUAGUGCUAAGGGGGCCUGGUAGUUUGGACUGGGUAGAGCUCAACACAGCGUGGCAAAGUGGCUGUGGCUAGACUGCCCCUCUGGAUUCCUCGUCACUCAGCAGGGCAUCUCUGAGAGAAAUGCC [A42U C56U U100C]: 0.21. The value for UACGUAGGUGGUUUUCCCCUGAUAGUGCUAAGGGGGCCUGGUAGUUUGGACUGGGCAGAGCUCAACACAGCGUGGCUAAGAGGCUGUGGCUAGACUGCCUCUCUGGAUUCCUCGUCACUCAGCAGGGCAUCUCUGAGAGAAAUGCC [A42U A77U U81A] was 2.03; that for UACGUAGGUGGUUUUCCCCUGAUAGUGCUAAGGGGGCCUGGUAGUUUGGACUGGGCAGAGCUCAACACAGCGUGGCAAAGUGGCUGUGGCUAGACUGCCUCACUGGAUUCCUCGUAACUCAGCAGGGCAUCUCUGAGAGAAAUGCC [A42U U102A C116A] was 1.99. Regarding UACGUAGGUGGUUUUCCCCUGAUAGUGCUAAGGGGGCCUGGUAGUUUGGACUGGGCAGAGCUCAACACAGCGUGGCAAAGUGGCUGUGGCCAGACUGCCUCUCUGGAUUCCUCGUCACUCAGCAGGGCAUCUCUGAGAGGAAUGCC [A42U U91C A140G], the self-cleavage was 0.49. The same measure for UACGUAGGUGGUUUUCCCCUGAUAGUGCUAAGGGGGCCUGGUAGUUUGGACUGGGCAGAGCUCAACACAGCGUGGCAAAGUGGCUGUGGCUAGACUGCCACUCUGGAUUCCUCGUCACUCAGCAGGGCAUCUCAGAGAGAAAUGCC [A42U U100A U134A]: 0.47.

As to UACGUAGGUGGUUUUCCCCUGAUAGUGCUAAGGGGGCCUGGUAGUUUGGACUGGGCAGAGCCCAACACAGCGUGGCAAAGUGGCAGUGGCUAGACUGCCUCUCUGGAUUCCUCGCCACUCUGCAGGGCAUCUCUGAGAGAAAUGCC [A42U U62C U85A U115C A121U], the self-cleavage amounted to 0. The same measure for UACGUAGGUGGUUUUCCCCUGAUAGUGCUAAGGGGGCCUGGUAGUUUGGACCGGGCAGAGCUCAACACAGCGUGGCAAAGUGGCUGUGGCUAGACUGCCUCUCCGGAUUCCUCGUCACUCAGCAGGGCAUCUCUGAGAGAAAUACC [A42U U52C U104C G144A]: 0.94.

For the variant UACGUAGGUGGUUUUCCCCUGAUAGUGCUAAGGGGGCCUGGUAGUUUGGACUGGGCAGAGCUCAACACAGCGUGGCAAAGUGGCUGUGGCUGGACUGCCUCUCUGGAUUCCUCGUCACUCAGCAGGGCAUCUCUGAGAGAGAUGCC [A42U A92G A141G], the self-cleavage amounted to 0.03. The same measure for UACGUAGGUGGUUUUCCCCUGAUAGUGCUAAGGGGGCCUGGUAGUUUGGACUGGGCAGAGCUCAACACUGCGUGGCAAAGUGGCUGUGGCUAGACUGCCUCUCAGGAUUCCUCGUCACUCAGCAGGGCAUCUCUGAGAGAAAUGCC [A42U A69U U104A]: 0.02.
